How the values were obtained:
[1] = target: T1, IL-7 receptor (IL-7R alpha chain and common gamma chain) on human T cells (human, UniProt P16871 21-459; P31785 23-369); assay: cell-based or functional assay
T1 sequence (looked up) 1: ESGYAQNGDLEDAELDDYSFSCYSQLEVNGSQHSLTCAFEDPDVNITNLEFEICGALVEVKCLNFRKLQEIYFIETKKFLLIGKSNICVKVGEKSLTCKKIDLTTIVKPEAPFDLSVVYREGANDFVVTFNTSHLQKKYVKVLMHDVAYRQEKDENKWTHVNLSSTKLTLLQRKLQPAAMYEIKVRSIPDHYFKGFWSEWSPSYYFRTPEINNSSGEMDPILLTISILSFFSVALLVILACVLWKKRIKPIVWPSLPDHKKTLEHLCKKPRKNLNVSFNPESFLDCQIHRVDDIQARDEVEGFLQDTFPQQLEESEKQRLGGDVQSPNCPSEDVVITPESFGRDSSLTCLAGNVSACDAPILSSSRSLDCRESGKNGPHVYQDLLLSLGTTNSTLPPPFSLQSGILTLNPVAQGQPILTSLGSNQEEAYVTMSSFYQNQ
T1 sequence (looked up) 2: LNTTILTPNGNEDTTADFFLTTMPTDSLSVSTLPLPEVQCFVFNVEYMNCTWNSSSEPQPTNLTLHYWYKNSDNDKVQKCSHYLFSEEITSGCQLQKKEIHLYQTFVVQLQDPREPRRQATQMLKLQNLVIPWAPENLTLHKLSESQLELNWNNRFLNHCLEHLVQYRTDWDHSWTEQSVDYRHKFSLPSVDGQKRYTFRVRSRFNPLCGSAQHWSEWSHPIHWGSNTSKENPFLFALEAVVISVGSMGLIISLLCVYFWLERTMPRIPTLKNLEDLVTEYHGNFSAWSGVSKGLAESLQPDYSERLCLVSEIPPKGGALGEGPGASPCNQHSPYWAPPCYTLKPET

[2] = target: T2, human PD-1 on activated CD4 T cells (human, UniProt Q15116 25-288); assay: cell-based or functional assay
[3] = target: T1, IL-7 receptor (IL-7R alpha chain and …); assay: cell-based or functional assay; remark: listed apart in the source
[4] = target: T2, human PD-1 on activated CD4 T cells; assay: cell-based or functional assay; remark: listed apart in the source
[5] = target: T1, IL-7 receptor (IL-7R alpha chain and …); assay: cell-based or functional assay; remark: listed apart in the source
[6] = target: T3, human huPD1-ECD_Fc (P1AD9704) (human, UniProt Q15116 part only); assay: SPR Biacore T200, sample captured by anti-PGLALA, huPD1-ECD-Fc injected; sample stressed 2 w/pH 7.4 +37°C
T3 construct: extracellular domain; In-house reagent; not shown: Fc part

[7] = target: T3, human huPD1-ECD_Fc (P1AD9704); assay: SPR Biacore T200, sample captured by anti-PGLALA, huPD1-ECD-Fc injected; sample stressed 2 w/pH 6.0, +40°C
[8] = target: T4, human IL7Rα-IL2Rg-Fc (P1AF4984) (human, UniProt P16871 21-239; P31785 23-262, limits assumed); assay: SPR Biacore T200, sample captured by anti-PGLALA, IL7Ra-IL2Rg-Fc injected; sample stressed 2 w/pH 7.4 +37°C
T4 construct: In-house heterodimeric Fc fusion; also called IL7Ra-IL2Rg-Fc; human IL7Ralpha-IL2Rgamma-Fc heterodimer; not shown: Fc part
T4 sequence (looked up) 1: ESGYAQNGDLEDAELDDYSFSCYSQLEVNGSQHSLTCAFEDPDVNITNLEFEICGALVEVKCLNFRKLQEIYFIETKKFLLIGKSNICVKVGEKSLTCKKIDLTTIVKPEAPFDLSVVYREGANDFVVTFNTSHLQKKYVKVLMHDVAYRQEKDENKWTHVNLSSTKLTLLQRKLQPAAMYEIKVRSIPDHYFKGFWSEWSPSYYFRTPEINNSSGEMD
T4 sequence (looked up) 2: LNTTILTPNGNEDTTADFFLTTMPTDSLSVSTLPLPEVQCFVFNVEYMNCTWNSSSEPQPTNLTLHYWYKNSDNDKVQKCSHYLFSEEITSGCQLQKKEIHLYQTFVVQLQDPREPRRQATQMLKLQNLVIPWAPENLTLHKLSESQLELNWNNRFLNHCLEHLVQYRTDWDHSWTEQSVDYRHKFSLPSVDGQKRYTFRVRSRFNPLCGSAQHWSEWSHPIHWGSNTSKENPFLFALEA

[9] = target: T4, human IL7Rα-IL2Rg-Fc (P1AF4984); assay: SPR Biacore T200, sample captured by anti-PGLALA, IL7Ra-IL2Rg-Fc injected; sample stressed 2 w/pH 6.0, +40°C
[10] = target: T3, human huPD1-ECD_Fc (P1AD9704); assay: SPR Biacore T200, sample captured by anti-PGLALA, huPD1-ECD-Fc injected; sample 2 w/pH 6.0, -80°C (reference)
[11] = target: T4, human IL7Rα-IL2Rg-Fc (P1AF4984); assay: SPR Biacore T200, sample captured by anti-PGLALA, IL7Ra-IL2Rg-Fc injected; sample 2 w/pH 6.0, -80°C (reference)

B1: P1AI5585 (PD1-IL7v2.2, fully glycosylated; de-risked PD1 binder FV020519; IL7 D74K, G85K; (G2SG2)3 linker) (other)
light: DIVMTQSPDSLAVSLGERATINCKASESVDTSDNSFIHWYQQKPGQSPKLLIYRASTLESGVPDRFSGSGSGTDFTLTISSLQAEDVAVYYCQQNYDVPWTFGQGTKVEIKRTVAAPSVFIFPPSDEQLKSGTASVVCLLNNFYPREAKVQWKVDNALQSGNSQESVTEQDSKDSTYSLSSTLTLSKADYEKHKVYACEVTHQGLSSPVTKSFNRGEC
heavy 1: EVQLLESGGGLVQPGGSLRLSCAASGFSFSSYTMSWVRQAPGKGLEWVSAISGGGRDIYYPDSVKGRFTISRDNSKNTLYLQMNSLRAEDTAVYYCVLLTGRVYFALDSWGQGTLVTVSSASTKGPSVFPLAPSSKSTSGGTAALGCLVKDYFPEPVTVSWNSGALTSGVHTFPAVLQSSGLYSLSSVVTVPSSSLGTQTYICNVNHKPSNTKVDKKVEPKSCDKTHTCPPCPAPEAAGGPSVFLFPPKPKDTLMISRTPEVTCVVVDVSHEDPEVKFNWYVDGVEVHNAKTKPREEQYNSTYRVVSVLTVLHQDWLNGKEYKCKVSNKALGAPIEKTISKAKGQPREPQVCTLPPSRDELTKNQVSLSCAVKGFYPSDIAVEWESNGQPENNYKTTPPVLDSDGSFFLVSKLTVDKSRWQQGNVFSCSVMHEALHNHYTQKSLSLSPG
heavy 2: EVQLLESGGGLVQPGGSLRLSCAASGFSFSSYTMSWVRQAPGKGLEWVSAISGGGRDIYYPDSVKGRFTISRDNSKNTLYLQMNSLRAEDTAVYYCVLLTGRVYFALDSWGQGTLVTVSSASTKGPSVFPLAPSSKSTSGGTAALGCLVKDYFPEPVTVSWNSGALTSGVHTFPAVLQSSGLYSLSSVVTVPSSSLGTQTYICNVNHKPSNTKVDKKV[sequence of human IgG1 Fc with changes omitted]GGSGGGGSGGGGSGGDCDIEGKDGKQYESVLMVSIDQLLDSMKEIGSNCLNNEFNFFKRHICDANKEGMFLFRAARKLRQFLKMNSTGKFDLHLLKVSEKTTILLNCTGQVKGRKPAALGEAQPTKSLEENKSLKEQKKLNDLCFLKRLLQEIKTCWNKILMGTKEH
notes: Immunoconjugate: anti-PD-1 IgG1 (FV020519), knob-into-hole, PGLALA; IL-7 variant fused to the C-terminus of the knob heavy chain; also called P1AI5585-006 (transient)
Potency reduction to PD1-IL7wt: EC50 (PD1+)/EC50 (PD1-IL7wt) [1]: 24.7 fold | STAT-5P AUC, PD1+ CD4 T cells [1]: 49 | STAT-5P AUC, PD1-blocked CD4 T cells [1]: 16.8 | Cis-delivery: fold increase in EC50, EC50 [with PD1bl]/EC50 [no PD1bl] [2]: 48.2 fold | Delta AUC (PD1+ vs PD1bl.) [2]: 32.1 | Potency reduction to PD1-IL7wt: EC50 (PD1+)/EC50 (PD1-IL7wt) (batch P1AI5585-407, stable) [3]: 10 fold | Cis-delivery: fold increase in EC50, EC50 [with PD1bl]/EC50 [no PD1bl] (batch P1AI5585-407, stable) [4]: 120 fold | EC50[active]/EC50 [active PD1-IL7wt] (batch P1AI5585-407) [5]: 15.3 fold | EC50[fresh]/EC50 [fresh PD1-IL7wt] (batch P1AI5585-407) [5]: 3920 fold | Relative Active Concentration (RAC), binding relative to the non-stressed sample [6]: 113% | Relative Active Concentration (RAC), binding relative to the non-stressed sample [7]: 105% | Relative Active Concentration (RAC), binding relative to the non-stressed sample [8]: 104% | Relative Active Concentration (RAC), binding relative to the non-stressed sample [9]: 97% | Relative Active Concentration (RAC), binding relative to the non-stressed sample [10]: 100% | Relative Active Concentration (RAC), binding relative to the non-stressed sample [11]: 100%

Source: patent US20250361279A1 (Hoffmann-La Roche, published 2025)
